# In the supplement of paper PMC9174493:
# The other results are listed elsewhere or left out. Single values of this set are uncertain. Values with irradiation are relative to irradiated vehicle.
# Key:
# [1] = test system: A549-Dual; experiment: NF-kB reporter (SEAP) activity, viability-corrected, relative to vehicle (fold change vs vehicle); higher = more activation of STING-IRF / NF-kB immune response reporter; conditions: 10 µM
# [2] = test system: A549-Dual; experiment: ISRE reporter (Lucia luciferase) activity, viability-corrected, relative to vehicle (fold change vs vehicle); higher = more activation of STING-IRF / NF-kB immune response reporter; conditions: 10 µM
# 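For NF-kB reporter (SEAP) activity, viability-corrected, relative to vehicle in this document: viability correction based on the alamar blue assay, with concentrations leaving 10% survival or less dropped.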
Structure (SMILES),NF-kB reporter ([1]; irradiation: 8 Gy/4 fr),NF-kB reporter ([1]; irradiation: none),ISRE reporter ([2]; irradiation: 8 Gy/4 fr),ISRE reporter ([2]; irradiation: none)
CCN(CCO)CCCC(C)Nc1ccnc2cc(Cl)ccc12.O=S(=O)(O)O (configuration not stated) [Hydroxychloroquine Sulfate],0.71,0.885,0.811,1.34
CCCCOC(=O)c1ccc(N)cc1 [Butamben],0.607,0.884,0.553,0.927
CCCCCOc1ccc(-c2cc(-c3ccc(C(=O)NC4CC(O)C(O)NC(=O)C5C(O)C(C)CN5C(=O)C(C(O)CC(N)=O)NC(=O)C(C(O)C(O)c5ccc(O)c(OS(=O)(=O)[O][Na])c5)NC(=O)C5CC(O)CN5C(=O)C(C(C)O)NC4=O)cc3)no2)cc1 (configuration not stated) [Micafungin Sodium],0.923,0.865,0.801,0.985
Cl.Clc1ccccc1CN1CCc2sccc2C1 [Ticlopidine HCl],0.937,1.36,0.743,0.967
COCCc1ccc(OCC(O)CNC(C)C)cc1 (configuration not stated) [Metoprolol],0.937,0.958,0.915,0.917
O=C(O)c1cc(O)c2c(c1)C(C1c3cc(C(=O)O)cc(O)c3C(=O)c3c(OC4OC(CO)C(O)C(O)C4O)cccc31)c1cccc(OC3OC(CO)C(O)C(O)C3O)c1C2=O (configuration not stated) [Sennoside B],0.837,0.666,0.712,0.473
CC(=O)OC1CC2CCC1(C)C2(C)C (configuration not stated) [Bornyl acetate],0.774,1.02,0.731,0.844
COc1cc(Cc2cnc(N)nc2N)cc(OC)c1OC [Trimethoprim],0.97,1.09,1.21,0.799
CC(NCCC(c1ccccc1)c1ccccc1)c1ccccc1.Cl (configuration not stated) [Fendiline hydrochloride],1.09,0.711,1.46,1.48
NC(C(=O)O)C(O)c1ccc(O)c(O)c1 (configuration not stated) [Droxidopa],1.18,0.834,1.24,0.703
CC(C)CN(CC(OP(=O)([O-])[O-])C(Cc1ccccc1)NC(=O)OC1CCOC1)S(=O)(=O)c1ccc(N)cc1.[Ca+2] (configuration not stated) [Fosamprenavir calcium salt],0.805,1.18,0.542,0.882
c1c[nH]cn1 [Imidazole],0.715,0.705,0.739,0.463
C#CC1(O)CCC2C3CCC4=CCCCC4C3CCC21C (configuration not stated) [Lynestrenol],0.711,0.773,0.544,0.607
Cl.N=C(N/N=C/c1ccc(Cl)cc1)N/N=C/c1ccc(Cl)cc1 [Robenidine Hydrochoride],0.813,1.02,0.795,0.961
O=c1ccn(C2OC(COP(=O)(O)O)C(O)C2O)c(=O)[nH]1 (configuration not stated) [Uridine 5'-monophosphate],1.15,0.837,0.96,0.983
COc1ccccc1Oc1c(NS(=O)(=O)c2ccc(C(C)(C)C)cc2)nc(-c2ncccn2)nc1OCCO.O [Bosentan Hydrate],0.796,1.45,0.63,0.859
Nc1ccn(C2CSC(CO)O2)c(=O)n1 (configuration not stated) [Lamivudine],0.704,1.01,0.796,0.964
CC1=CC(=O)NS(=O)(=O)O1.[KH] [Acesulfame Potassium],0.898,0.641,0.849,0.604
COC(=O)C1=C(C)NC(C)=C(C(=O)OC(C)(C)CN(C)CCC(c2ccccc2)c2ccccc2)C1c1cccc([N+](=O)[O-])c1.Cl (configuration not stated) [Lercanidipine hydrochloride],0.618,1,0.533,0.704
C=C1/C(=C\C=C2/CCCC3(C)C2CCC3C(C)CCCC(C)(C)O)CC(O)CC1O (configuration not stated) [Calcitriol],0.518,0.669,0.392,0.716
Cc1cccc(C)c1NC(=O)C1CCCCN1C (configuration not stated) [Mepivacaine],0.488,1.08,0.531,0.681
CC(C)(C)C(=O)Oc1ccc(S(=O)(=O)Nc2ccccc2C(=O)NCC(=O)[O-])cc1.O.O.O.O.[Na+] [Sivelestat sodium tetrahydrate],1.04,1.54,1.07,1.15
COc1ccccc1N1CCN(CCCNc2cc(=O)n(C)c(=O)n2C)CC1.Cl [Urapidil HCl],0.955,0.998,0.921,0.892
Oc1ccc(OCc2ccccc2)cc1 [Monobenzone],2.06,1.98,0.844,2.16

Structure (SMILES),NF-kB reporter ([1]; irradiation: 8 Gy/4 fr),NF-kB reporter ([1]; irradiation: none),ISRE reporter ([2]; irradiation: 8 Gy/4 fr),ISRE reporter ([2]; irradiation: none)
CC(NCc1ccc(OCc2cccc(F)c2)cc1)C(N)=O (configuration not stated) [Safinamide],0.849,0.805,0.914,0.753
COc1ccc(-c2cc(=O)c3c(OC)c(OC)c(OC)cc3o2)cc1OC [Sinensetin],0.694,0.85,0.847,0.955
CS(=O)(=O)O.Cc1ccc(N(CC2=NCCN2)c2cccc(O)c2)cc1 [Phentolamine Mesylate],0.838,0.965,0.805,0.93
O=S(=O)([O-])CCCCOCC1OC2OC3=C(CO)OC(OC4C(CO)OC(OC5C(CO)OC(OC6C(CO)OC(OC7C(CO)OC(OC8C(CO)OC(OC1C(O)C2OCCCCS(=O)(=O)[O-])C(O)C8O)C(O)C7O)C(O)C6O)C(O)C5O)C(O)C4O)C(O)C3O.[Na+].[Na+] (stereo not drawn) [Captisol (SBE-β-CD)],1.2,0.778,1.17,0.608
CCCCCCCCCCCCCCCC(=O)O [Palmitic acid],0.74,0.867,0.32,0.701
Cc1cnc(C(=O)O)c[n+]1[O-] [Acipimox],0.738,1.16,0.55,0.584
C=CC1C(OC2OC(CO)C(O)C(O)C2O)OC=C2C(=O)OCCC21O (configuration not stated) [Swertiamarin],1.02,0.771,1.01,0.779
COc1ccc2c3c1OC1CC(O)C=CC31CCN(C)C2 (configuration not stated) [Galanthamine],0.89,1.11,1.07,1.09
O=C(O)/C=C/C(=O)O [Fumaric acid],0.978,0.848,0.893,0.562
COC1C(OC(C)=O)CC(=O)OC(C)C/C=C/C=C/C(O)C(C)CC(CC=O)C1OC1OC(C)C(OC2CC(C)(O)C(OC(=O)CC(C)C)C(C)O2)C(N(C)C)C1O (configuration not stated) [Josamycin],0.724,0.895,0.547,0.713
COCCNC(=O)CN(CCN(CCN(CC(=O)[O-])CC(=O)NCCOC)CC(=O)[O-])CC(=O)[O-].[Gd+3] [Gadoversetamide],0.771,0.723,0.74,0.62
O=C(O)/C=C/c1ccccc1 [Cinnamic acid],0.86,0.891,0.985,0.726
CCC1OC(=O)CC(O)C(C)C(OC2OC(C)C(O)C(N(C)C)C2O)C(CCN2CC(C)CC(C)C2)CC(C)C(=O)/C=C/C(C)=C/C1COC1OC(C)C(O)C(OC)C1OC (configuration not stated) [Tilmicosin],0.855,0.976,1.04,0.952
Cc1cc([N]([Na])S(=O)(=O)c2ccc(N)cc2)no1 [Sulfamethoxazole sodium],0.964,0.893,0.883,0.727
COc1ccccc1 [Anisole],0.781,0.879,0.599,0.573
C[N+](C)(C)CCO.Cn1c(=O)c2[n-]cnc2n(C)c1=O [Oxtriphylline],0.749,0.987,0.126,0.308
CC(C)NCC(O)COc1ccc(CCOCC2CC2)cc1.Cl (configuration not stated) [Levobetaxolol HCl],0.782,0.967,0.845,0.718
CCCCCCCCCCCCOC(=O)CS(=O)(=O)[O-].[Na+] [Sodium Houttuyfonate],0.82,0.819,0.826,0.812
"O=C(OC1Cc2c(O)cc(O)cc2OC1c1ccc(O)c(O)c1)c1cc(O)c(O)c(O)c1 (single isomer, unassigned; (-)) [(-)-Epicatechin gallate]",0.684,0.572,0.645,0.446
CCN1CCN(c2cc3c(cc2F)c(=O)c(C(=O)O)cn3C2CC2)CC1 [Enrofloxacin],0.854,1.16,0.78,0.888
C=CC(C)(O)CCC=C(C)C (configuration not stated) [Linalool],0.899,1.03,0.804,0.761
NCCC(O)C(=O)NC1CC(N)C(OC2OC(CN)C(O)C(O)C2O)C(O)C1OC1OC(CO)C(O)C(N)C1O.O (configuration not stated) [Amikacin hydrate],0.791,0.842,0.773,0.945
CN1CC(O)C2=C/C(=N/NC(N)=O)C(=O)C=C21 (configuration not stated) [Carbazochrome],0.836,0.832,0.752,0.605
CC(C)(C)NCC(O)c1cc(O)cc(O)c1.CC(C)(C)NCC(O)c1cc(O)cc(O)c1.O=S(=O)(O)O (configuration not stated) [Terbutaline Sulfate],1.05,1.44,0.984,0.83
